According to PubChem BioAssay AID445 (National Center for Advancing Translational Sciences (NCATS), 2006):
Among all 110,000 compounds or so, about 40 (0.04%) were called active. The inconclusive results got no clear call from the source; some entries with a clear call stand among them for comparison. Calls follow the shape of the dose curve; as a rule, active = well fitted curve in the direction sought with a large enough effect in the signal ratio (not every such curve was filed as active); inconclusive = small, poorly fitted or top-dose-only effect, or a change in a side signal; inactive = flat fitted curve, though single readings scatter; the % refers to the signal ratio. A potency beside an inconclusive call is a rough fit, not a confirmed value.

Assay: IkB Signaling;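 as to IkBa stabilization activation: 0% = basal untreated cells and 100% = reference inhibitor full response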
Settings: ABC-DLBCL IkBa-CBG/CBR dual luciferase ratio (green luciferase fused to IkBa over red control in OCI-Ly3 lymphoma cells), 4 h; IkBa stabilization activation: at 57.1 µM (top of the series), scaled: untreated 0%, proteasome inhibitor 100% unless noted
Summary of the method: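 Luminescence ratio of IκBα-fused green versus native red beetle luciferase in OCI-Ly3 cells, 4 h post-doxycycline with compound; red signal alone, scaled from basal (0%) to zero light (-100%), flagged nonspecific or cytotoxic effects.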
Potency is read from the fitted curve at half-maximal effect.

Row | Structure (SMILES) | IkBa stabilization activation | Potency
1 | COc1ccc(CNC(=O)C(c2ccco2)N(Cc2cccs2)C(=O)Cc2cccs2)cc1 (stereo unspecified) | inactive: 0.361% | –
2 | CC[C@H](Cc1c(I)cc(I)c(N)c1I)C(=O)O | inactive: 3.84% [at 25.6 µM, scaled: untreated 0%, proteasome inhibitor 100%] | –
3 | CCOc1ccc(CCNCc2c(C(=O)O)n(Cc3ccc(C)cc3)c3cc(OC)ccc23)cc1 | inconclusive: -0.524% [signal inhibitor] | –
4 | CCCc1cc(C(=O)Nc2sc(C(C)=O)c(C)c2C(=O)OCC)no1 | inactive: 0.0989% | –
5 | COc1ccc(C(=O)/C=C/c2cn(CC(O)CN(CC(C)C)CC(C)C)c3ccccc23)cc1 (stereo unspecified) | inactive: -0.529% | –
6 | CC(=O)CSc1ncnc2c1oc1ccccc12 | inactive: -2.62% | –
7 | Cc1cccc(NC(=O)c2sc3nc(-c4ccc(F)cc4)cn3c2C)n1 | – | inconclusive: 15.8 µM [signal inhibitor, partial curve]
8 | CCN(CC(=O)Nc1ccc2c(c1)OCCO2)Cc1cc(=O)oc2c(C)c(C)ccc12 | inconclusive: 0.84% [signal inhibitor] | –
9 | COc1ccc(-c2csc3nc(-c4ccc(F)cc4)oc(=O)c23)cc1 | – | inconclusive: 5.01 µM [signal inhibitor, full curve]
10 | COCCNC(=O)c1ccc(-n2c(-c3ccccc3)cc3c2CCCCC3)cc1 | inconclusive: -1.59% [signal inhibitor] | –
11 | C=C(C)Cn1c(SCC#N)nc2ccccc2c1=O | inactive: -1.96% | –
12 | COc1ccc(C2=NS(=O)(=O)N(C)C(C(=O)NCc3ccccc3)=C2)cc1OC | inconclusive: 9.38% [signal inhibitor] | –
13 | Cc1ccc(S(=O)(=O)N2CCN(C(=O)CSc3nc4ccccc4o3)C2)cc1 | inconclusive: 7.14% [signal inhibitor] | –
14 | CCOc1ccc2[nH]c(=O)c(C(c3nnnn3C3CCCCC3)N3CCN(C)CC3)cc2c1 (stereo unspecified) | inactive: -0.0412% | –
15 | CCn1c(=O)n(CC)c2cc(S(=O)(=O)N3CCC(c4ccccc4)CC3)ccc21 | inconclusive: 2.33% [signal inhibitor] | –
16 | CCc1ccc(NC(=O)C(=O)NCC(c2ccc3c(c2)OCO3)N2CCOCC2)cc1 (stereo unspecified) | inactive: -1.05% | –
17 | CCS(=O)(=O)N1CCC(n2c(C)nc3cccnc32)CC1 | inactive: 0.706% | –
18 | Cc1ccc(Cl)c(NC(=O)Nc2csc3c2CCCC3)c1 | inactive: -1.33% | –
19 | O=C(Nc1cccnc1)c1cc(-c2ccc3c(c2)OCO3)on1 | inconclusive: 17.4% [signal inhibitor] | –
20 | CCC(C(=O)NCc1ccccc1OC)n1nc(C)n2c(cc3sccc32)c1=O (stereo unspecified) | inconclusive: 0.243% [signal inhibitor] | –
21 | CCNC(=O)[C@@H]1O[C@@H](n2cnc3c(NCc4ccccc4)ncnc32)[C@@H](O)[C@H]1O | inconclusive: 8.31% [signal activator] | –
